# Laboratory results reported in the supplement of paper PMC10037445.
# In all, about 2,900 compounds were measured (“NF-kB SEAP reporter activity, fold change vs agonist alone”: median about 0.99, highest 2% from about 2.6 on). The list shows a part of the results.
# Tests used:
# RAW-Dual [1] = experiment: NF-kB SEAP reporter activity, fold change vs agonist alone; cytotoxicity flag (confluency mask): not cytotoxic; higher = enhanced NF-kB activity
# In short: (§1)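 RAW-Dual macrophages (50,000 cells/well in DMEM, 384-well plates) received 50 nL of library stock by pin tool, then a PRR agonist 1 h later, and were kept at 37 °C, 5% CO2. After 20 hours, supernatant was read for IRF by QuantiLuc luminescence and for NF-κB by QuantiBlue absorbance at 620 nm. Reporter activity is fold change over agonist-alone wells. Cytotoxic wells had IncuCyte confluency below 70% of agonist controls in both mask sets.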
# RAW-Dual [2] = experiment: NF-kB SEAP reporter activity, fold change vs agonist alone; higher = enhanced NF-kB activity
# In short: as §1
# RAW-Dual [3] = experiment: NF-kB SEAP reporter activity, fold change vs agonist alone; cytotoxicity flag (confluency mask): cytotoxic (confluency <70% of control); higher = enhanced NF-kB activity
# In short: as §1
# [4] = agonist: ODN 1826 (TLR9) 0.5 ug/mL
# [5] = agonist: Pam2CSK4 (TLR2/6) 0.1 ug/mL
# [6] = agonist: Pam3CSK4 (TLR2/1) 0.1 ug/mL
# [7] = library stock concentration (final ~1000-fold dilution): 10 mM, cytotoxicity flag (confluency mask): cytotoxic (confluency <70% of control), agonist: Imiquimod (TLR7) […]
# [8] = library stock concentration (final ~1000-fold dilution): 10 mM, cytotoxicity flag (confluency mask): cytotoxic (confluency <70% of control), agonist: MPLA (TLR4) […]
# [9] = library stock concentration (final ~1000-fold dilution): 10 mM, cytotoxicity flag (confluency mask): not cytotoxic, agonist: Imiquimod (TLR7) […]
# [10] = library stock concentration (final ~1000-fold dilution): 10 mM, cytotoxicity flag (confluency mask): not cytotoxic, agonist: MPLA (TLR4) […]
structure (smiles),measurement,setting,value
COS(=O)(=O)[O-].COc1cc(N)cn[n+]1-c1ccccc1 (library stock concentration (final ~1000-fold dilution): 10 mM),NF-kB SEAP reporter activity,RAW-Dual [1]; agonist: LPS (TLR4) 0.1 ug/mL,1.01
same,NF-kB SEAP reporter activity,RAW-Dual [1]; [4],0.939
same,NF-kB SEAP reporter activity,RAW-Dual [1]; [5],0.993
same,NF-kB SEAP reporter activity,RAW-Dual [1]; [6],0.97
CN1CCC(=C2c3ccccc3CCc3sccc32)CC1.O=C(O)CC(O)C(=O)O,NF-kB SEAP reporter activity,RAW-Dual [2]; [7],1.44
same,NF-kB SEAP reporter activity,RAW-Dual [2]; [8],1.21
CN1CCC(=C2c3ccccc3CCc3sccc32)CC1.O=C(O)CC(O)C(=O)O (library stock concentration (final ~1000-fold dilution): 10 mM),NF-kB SEAP reporter activity,RAW-Dual [3]; agonist: LPS (TLR4) 0.1 ug/mL,1.08
same,NF-kB SEAP reporter activity,RAW-Dual [3]; [4],0.512
same,NF-kB SEAP reporter activity,RAW-Dual [3]; [5],0.669
same,NF-kB SEAP reporter activity,RAW-Dual [3]; [6],0.792
O=C1C[C@@H](c2ccc(O[C@@H]3O[C@H](CO)[C@@H](O)[C@H](O)[C@H]3O)cc2)Oc2cc(O)ccc21 (library stock concentration (final ~1000-fold dilution): 10 mM),NF-kB SEAP reporter activity,RAW-Dual [1]; agonist: LPS (TLR4) 0.1 ug/mL,0.734
same,NF-kB SEAP reporter activity,RAW-Dual [1]; [4],0.871
same,NF-kB SEAP reporter activity,RAW-Dual [1]; [5],0.793
same,NF-kB SEAP reporter activity,RAW-Dual [1]; [6],0.946
O=C1C[C@@H](c2ccc(O[C@@H]3O[C@H](CO)[C@@H](O)[C@H](O)[C@H]3O)cc2)Oc2cc(O)ccc21,NF-kB SEAP reporter activity,RAW-Dual [2]; [9],1.17
same,NF-kB SEAP reporter activity,RAW-Dual [2]; [10],1.18
Nc1ccn(C2CSC(CO)O2)c(=O)n1 (stereo unspecified) (library stock concentration (final ~1000-fold dilution): 10 mM),NF-kB SEAP reporter activity,RAW-Dual [1]; agonist: LPS (TLR4) 0.1 ug/mL,0.862
same,NF-kB SEAP reporter activity,RAW-Dual [1]; [4],1.03
same,NF-kB SEAP reporter activity,RAW-Dual [1]; [5],0.999
same,NF-kB SEAP reporter activity,RAW-Dual [1]; [6],1.11
Nc1ccn(C2CSC(CO)O2)c(=O)n1 (stereo unspecified),NF-kB SEAP reporter activity,RAW-Dual [2]; [9],0.893
same,NF-kB SEAP reporter activity,RAW-Dual [2]; [10],1.04
Cc1c(Cl)cccc1Nc1ccccc1C(=O)O (library stock concentration (final ~1000-fold dilution): 10 mM),NF-kB SEAP reporter activity,RAW-Dual [1]; agonist: LPS (TLR4) 0.1 ug/mL,1.06
same,NF-kB SEAP reporter activity,RAW-Dual [1]; [4],0.863
same,NF-kB SEAP reporter activity,RAW-Dual [1]; [5],0.677
same,NF-kB SEAP reporter activity,RAW-Dual [1]; [6],0.869
Cc1c(Cl)cccc1Nc1ccccc1C(=O)O,NF-kB SEAP reporter activity,RAW-Dual [2]; [9],0.738
same,NF-kB SEAP reporter activity,RAW-Dual [2]; [10],0.984
Cc1ccc(S(=O)(=O)C=CC#N)cc1,NF-kB SEAP reporter activity,RAW-Dual [2]; [7],0.215
same,NF-kB SEAP reporter activity,RAW-Dual [2]; [8],0.281
Cc1ccc(S(=O)(=O)C=CC#N)cc1 (library stock concentration (final ~1000-fold dilution): 10 mM),NF-kB SEAP reporter activity,RAW-Dual [3]; agonist: LPS (TLR4) 0.1 ug/mL,0.282
same,NF-kB SEAP reporter activity,RAW-Dual [3]; [4],0.217
same,NF-kB SEAP reporter activity,RAW-Dual [3]; [5],0.0769
same,NF-kB SEAP reporter activity,RAW-Dual [3]; [6],0.179
CN1CCC(NC(=O)Nc2ccc(C#N)cc2)CC1c1nc2ccccc2[nH]1 (stereo unspecified) (library stock concentration (final ~1000-fold dilution): 10 mM),NF-kB SEAP reporter activity,RAW-Dual [1]; agonist: LPS (TLR4) 0.1 ug/mL,0.952
same,NF-kB SEAP reporter activity,RAW-Dual [1]; [4],1.01
same,NF-kB SEAP reporter activity,RAW-Dual [1]; [5],1.05
same,NF-kB SEAP reporter activity,RAW-Dual [1]; [6],0.998
CN1CCC(NC(=O)Nc2ccc(C#N)cc2)CC1c1nc2ccccc2[nH]1 (stereo unspecified),NF-kB SEAP reporter activity,RAW-Dual [2]; [9],0.96
same,NF-kB SEAP reporter activity,RAW-Dual [2]; [10],1.05
Cl.O=S(=O)(c1cccc2cnccc12)N1CCCNCC1 (library stock concentration (final ~1000-fold dilution): 10 mM),NF-kB SEAP reporter activity,RAW-Dual [1]; agonist: LPS (TLR4) 0.1 ug/mL,0.728
same,NF-kB SEAP reporter activity,RAW-Dual [1]; [4],0.9
same,NF-kB SEAP reporter activity,RAW-Dual [1]; [5],1.31
same,NF-kB SEAP reporter activity,RAW-Dual [1]; [6],1.29
Cl.O=S(=O)(c1cccc2cnccc12)N1CCCNCC1,NF-kB SEAP reporter activity,RAW-Dual [2]; [9],0.836
same,NF-kB SEAP reporter activity,RAW-Dual [2]; [10],0.975
O=C1c2ccccc2C(=O)C1c1ccccc1 (library stock concentration (final ~1000-fold dilution): 10 mM),NF-kB SEAP reporter activity,RAW-Dual [1]; agonist: LPS (TLR4) 0.1 ug/mL,1.21
same,NF-kB SEAP reporter activity,RAW-Dual [1]; [4],1.05
same,NF-kB SEAP reporter activity,RAW-Dual [1]; [5],0.866
same,NF-kB SEAP reporter activity,RAW-Dual [1]; [6],1.1
O=C1c2ccccc2C(=O)C1c1ccccc1,NF-kB SEAP reporter activity,RAW-Dual [2]; [9],1.02
same,NF-kB SEAP reporter activity,RAW-Dual [2]; [10],1.23
O=C(c1cc(Cc2n[nH]c(=O)c3ccccc23)ccc1F)N1CCN(C(=O)C2CC2)CC1,NF-kB SEAP reporter activity,RAW-Dual [2]; [9],1.03
same,NF-kB SEAP reporter activity,RAW-Dual [2]; [10],1.33
O=C(c1cc(Cc2n[nH]c(=O)c3ccccc23)ccc1F)N1CCN(C(=O)C2CC2)CC1 (library stock concentration (final ~1000-fold dilution): 10 mM),NF-kB SEAP reporter activity,RAW-Dual [1]; agonist: LPS (TLR4) 0.1 ug/mL,1.66
same,NF-kB SEAP reporter activity,RAW-Dual [1]; [4],1.15
same,NF-kB SEAP reporter activity,RAW-Dual [1]; [5],1.3
same,NF-kB SEAP reporter activity,RAW-Dual [1]; [6],1.4
CCN(CC)CCNC(=O)c1cc(Cl)c(N)cc1OC.Cl (library stock concentration (final ~1000-fold dilution): 10 mM),NF-kB SEAP reporter activity,RAW-Dual [1]; agonist: LPS (TLR4) 0.1 ug/mL,0.887
same,NF-kB SEAP reporter activity,RAW-Dual [1]; [4],0.994
same,NF-kB SEAP reporter activity,RAW-Dual [1]; [5],0.978
same,NF-kB SEAP reporter activity,RAW-Dual [1]; [6],0.954
CCN(CC)CCNC(=O)c1cc(Cl)c(N)cc1OC.Cl,NF-kB SEAP reporter activity,RAW-Dual [2]; [9],0.986
same,NF-kB SEAP reporter activity,RAW-Dual [2]; [10],1.02
Clc1ccc2c(c1)C(N1CCNCC1)=Nc1ccccc1O2 (library stock concentration (final ~1000-fold dilution): 2 mM),NF-kB SEAP reporter activity,RAW-Dual [1]; agonist: LPS (TLR4) 0.1 ug/mL,1.19
same,NF-kB SEAP reporter activity,RAW-Dual [1]; [4],0.843
same,NF-kB SEAP reporter activity,RAW-Dual [1]; [5],0.83
same,NF-kB SEAP reporter activity,RAW-Dual [1]; [6],0.784
Clc1ccc2c(c1)C(N1CCNCC1)=Nc1ccccc1O2,NF-kB SEAP reporter activity,"RAW-Dual [2]; library stock concentration (final ~1000-fold dilution): 2 mM, cytotoxicity flag (confluency mask): not cytotoxic, agonist: Imiquimod (TLR7) […]",0.716
same,NF-kB SEAP reporter activity,"RAW-Dual [2]; library stock concentration (final ~1000-fold dilution): 2 mM, cytotoxicity flag (confluency mask): not cytotoxic, agonist: MPLA (TLR4) […]",1.15
O=C(O)CCc1nc(-c2ccccc2)c(-c2ccccc2)o1,NF-kB SEAP reporter activity,RAW-Dual [2]; [9],1.16
same,NF-kB SEAP reporter activity,RAW-Dual [2]; [10],1.01
O=C(O)CCc1nc(-c2ccccc2)c(-c2ccccc2)o1 (library stock concentration (final ~1000-fold dilution): 10 mM),NF-kB SEAP reporter activity,RAW-Dual [1]; agonist: LPS (TLR4) 0.1 ug/mL,1.07
same,NF-kB SEAP reporter activity,RAW-Dual [1]; [4],1.02
same,NF-kB SEAP reporter activity,RAW-Dual [1]; [5],1.1
same,NF-kB SEAP reporter activity,RAW-Dual [1]; [6],1.11
CC(=CC(=O)OCCCCCCCCC(=O)O)CC1OCC(CC2OC2C(C)C(C)O)C(O)C1O (stereo unspecified) (library stock concentration (final ~1000-fold dilution): 10 mM),NF-kB SEAP reporter activity,RAW-Dual [1]; agonist: LPS (TLR4) 0.1 ug/mL,1.41
same,NF-kB SEAP reporter activity,RAW-Dual [1]; [4],1.05
same,NF-kB SEAP reporter activity,RAW-Dual [1]; [5],1.23
same,NF-kB SEAP reporter activity,RAW-Dual [1]; [6],1.14
CC(=CC(=O)OCCCCCCCCC(=O)O)CC1OCC(CC2OC2C(C)C(C)O)C(O)C1O (stereo unspecified),NF-kB SEAP reporter activity,RAW-Dual [2]; [10],1.07
